Data: paper PMC12820563, “FoxP3 forms a head-to-head dimer in vivo and stabilizes its multimerization on adjacent microsatellites”
The other results are listed elsewhere or left out.

target: T1, MBP-FoxP1dN (Mus musculus, UniProt P58462 326-579); assay: PD-seq (MBP pull-down with sequencing); 20 mM Tris-HCl pH 7.5, 100 mM NaCl, 1.5 mM MgCl2, 0.4 uM protein, 0.1 uM dsDNA library, 30 min, room temperature, amylose pull-down; high values mean tight binding; conditions: protein: recombinant; tags: His6-MBP; chain copies: 2; dsDNA, one strand shown
T1 sequence: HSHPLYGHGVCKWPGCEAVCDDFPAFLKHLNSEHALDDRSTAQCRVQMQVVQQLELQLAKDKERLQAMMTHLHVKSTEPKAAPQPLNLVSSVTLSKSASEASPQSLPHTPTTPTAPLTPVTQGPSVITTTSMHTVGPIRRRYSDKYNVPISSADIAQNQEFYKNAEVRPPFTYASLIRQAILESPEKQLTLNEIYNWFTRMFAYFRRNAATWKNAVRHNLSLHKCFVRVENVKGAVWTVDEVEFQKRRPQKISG
Outline: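 Binding is given as reads-per-million enrichment, pull-down over input, with replicates pooled. The bait was an N-terminus-lacking mouse FoxP3 or FoxP1 fragment with a His6-MBP tag, expressed in E. coli and used at 0.4 µM with 0.1 µM Klenow-filled degenerate double-stranded DNA library for 30 min at room temperature in Tris pH 7.5 buffer with NaCl and MgCl2. Amylose resin pull-down with three washes was followed by proteinase K release, PCR barcoding and Illumina sequencing.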

Sequence | binding signal
GATGATTGTTCTCCCAGCTGATGAATTATATGGCTCGAGTAAACAAATTTTCCTAATCTTTCTGTTCAAGCGCCATCTAC | 0.929 RPM ratio (pull-down/input)
GATGATTGTTCTCCCAGCTGATGAATTCTTTAATTCGAGTAAACAAATTTTCCTAATCTTTCTGTTCAAGCGCCATCTAC | 0.994 RPM ratio (pull-down/input)
GATGATTGTTCTCCCAGCTGATGAATTAAGAATATCGAGTAAACAAATTTTCCTAATCTTTCTGTTCAAGCGCCATCTAC | 1.04 RPM ratio (pull-down/input)
GATGATTGTTCTCCCAGCTGATGAATTCACTCCTTCGAGTAAACAAATTTTCCTAATCTTTCTGTTCAAGCGCCATCTAC | 0.804 RPM ratio (pull-down/input)
GATGATTGTTCTCCCAGCTGATGAATTAGAATGCTCGAGTAAACAAATTTTCCTAATCTTTCTGTTCAAGCGCCATCTAC | 1.19 RPM ratio (pull-down/input)
GATGATTGTTCTCCCAGCTGATGAATTTGCTAAATCGAGTAAACAAATTTTCCTAATCTTTCTGTTCAAGCGCCATCTAC | 1.13 RPM ratio (pull-down/input)
GATGATTGTTCTCCCAGCTGATGAATTGACGTATTCGAGTAAACAAATTTTCCTAATCTTTCTGTTCAAGCGCCATCTAC | 1.26 RPM ratio (pull-down/input)
GATGATTGTTCTCCCAGCTGATGAATTTTCGTCTTCGAGTAAACAAATTTTCCTAATCTTTCTGTTCAAGCGCCATCTAC | 0.955 RPM ratio (pull-down/input)
GATGATTGTTCTCCCAGCTGATGAATTACGTTCTTCGAGTAAACAAATTTTCCTAATCTTTCTGTTCAAGCGCCATCTAC | 1.05 RPM ratio (pull-down/input)
GATGATTGTTCTCCCAGCTGATGAATTCACTCTTTCGAGTAAACAAATTTTCCTAATCTTTCTGTTCAAGCGCCATCTAC | 0.866 RPM ratio (pull-down/input)
GATGATTGTTCTCCCAGCTGATGAATTAATATCTTCGAGTAAACAAATTTTCCTAATCTTTCTGTTCAAGCGCCATCTAC | 0.953 RPM ratio (pull-down/input)
GATGATTGTTCTCCCAGCTGATGAATTTATGTAGTCGAGTAAACAAATTTTCCTAATCTTTCTGTTCAAGCGCCATCTAC | 1.25 RPM ratio (pull-down/input)
GATGATTGTTCTCCCAGCTGATGAATTCCATACCTCGAGTAAACAAATTTTCCTAATCTTTCTGTTCAAGCGCCATCTAC | 0.835 RPM ratio (pull-down/input)
GATGATTGTTCTCCCAGCTGATGAATTTTGGATTTCGAGTAAACAAATTTTCCTAATCTTTCTGTTCAAGCGCCATCTAC | 0.899 RPM ratio (pull-down/input)
GATGATTGTTCTCCCAGCTGATGAATTAGCCTCCTCGAGTAAACAAATTTTCCTAATCTTTCTGTTCAAGCGCCATCTAC | 0.863 RPM ratio (pull-down/input)
GATGATTGTTCTCCCAGCTGATGAATTAACTTAATCGAGTAAACAAATTTTCCTAATCTTTCTGTTCAAGCGCCATCTAC | 0.934 RPM ratio (pull-down/input)
GATGATTGTTCTCCCAGCTGATGAATTTTCCTTTTCGAGTAAACAAATTTTCCTAATCTTTCTGTTCAAGCGCCATCTAC | 0.942 RPM ratio (pull-down/input)
GATGATTGTTCTCCCAGCTGATGAATTCTGCTATTCGAGTAAACAAATTTTCCTAATCTTTCTGTTCAAGCGCCATCTAC | 0.976 RPM ratio (pull-down/input)
GATGATTGTTCTCCCAGCTGATGAATTGCAGCATTCGAGTAAACAAATTTTCCTAATCTTTCTGTTCAAGCGCCATCTAC | 1.24 RPM ratio (pull-down/input)
GATGATTGTTCTCCCAGCTGATGAATTACCGTTATCGAGTAAACAAATTTTCCTAATCTTTCTGTTCAAGCGCCATCTAC | 1.13 RPM ratio (pull-down/input)
GATGATTGTTCTCCCAGCTGATGAATTGTTACGTTCGAGTAAACAAATTTTCCTAATCTTTCTGTTCAAGCGCCATCTAC | 1.25 RPM ratio (pull-down/input)

Sequence | binding signal
GATGATTGTTCTCCCAGCTGATGAATTTTGCAGATCGAGTAAACAAATTTTCCTAATCTTTCTGTTCAAGCGCCATCTAC | 0.889 RPM ratio (pull-down/input)
GATGATTGTTCTCCCAGCTGATGAATTAGGCCTATCGAGTAAACAAATTTTCCTAATCTTTCTGTTCAAGCGCCATCTAC | 0.898 RPM ratio (pull-down/input)
GATGATTGTTCTCCCAGCTGATGAATTCTCCACGTCGAGTAAACAAATTTTCCTAATCTTTCTGTTCAAGCGCCATCTAC | 0.893 RPM ratio (pull-down/input)
GATGATTGTTCTCCCAGCTGATGAATTACCCCAGTCGAGTAAACAAATTTTCCTAATCTTTCTGTTCAAGCGCCATCTAC | 0.944 RPM ratio (pull-down/input)
GATGATTGTTCTCCCAGCTGATGAATTGAACACGTCGAGTAAACAAATTTTCCTAATCTTTCTGTTCAAGCGCCATCTAC | 0.926 RPM ratio (pull-down/input)
GATGATTGTTCTCCCAGCTGATGAATTTGAAATTTCGAGTAAACAAATTTTCCTAATCTTTCTGTTCAAGCGCCATCTAC | 0.86 RPM ratio (pull-down/input)
GATGATTGTTCTCCCAGCTGATGAATTGTTTTACTCGAGTAAACAAATTTTCCTAATCTTTCTGTTCAAGCGCCATCTAC | 1.42 RPM ratio (pull-down/input)
GATGATTGTTCTCCCAGCTGATGAATTAACTCGGTCGAGTAAACAAATTTTCCTAATCTTTCTGTTCAAGCGCCATCTAC | 0.818 RPM ratio (pull-down/input)
GATGATTGTTCTCCCAGCTGATGAATTCGCTAACTCGAGTAAACAAATTTTCCTAATCTTTCTGTTCAAGCGCCATCTAC | 0.873 RPM ratio (pull-down/input)
GATGATTGTTCTCCCAGCTGATGAATTTATACTATCGAGTAAACAAATTTTCCTAATCTTTCTGTTCAAGCGCCATCTAC | 1.32 RPM ratio (pull-down/input)
GATGATTGTTCTCCCAGCTGATGAATTTTAGAGGTCGAGTAAACAAATTTTCCTAATCTTTCTGTTCAAGCGCCATCTAC | 0.754 RPM ratio (pull-down/input)
GATGATTGTTCTCCCAGCTGATGAATTATCTACGTCGAGTAAACAAATTTTCCTAATCTTTCTGTTCAAGCGCCATCTAC | 0.996 RPM ratio (pull-down/input)
GATGATTGTTCTCCCAGCTGATGAATTGATCGACTCGAGTAAACAAATTTTCCTAATCTTTCTGTTCAAGCGCCATCTAC | 0.984 RPM ratio (pull-down/input)
GATGATTGTTCTCCCAGCTGATGAATTCGAATGTTCGAGTAAACAAATTTTCCTAATCTTTCTGTTCAAGCGCCATCTAC | 0.954 RPM ratio (pull-down/input)
GATGATTGTTCTCCCAGCTGATGAATTTGGCAGCTCGAGTAAACAAATTTTCCTAATCTTTCTGTTCAAGCGCCATCTAC | 0.875 RPM ratio (pull-down/input)
GATGATTGTTCTCCCAGCTGATGAATTTTCGGCGTCGAGTAAACAAATTTTCCTAATCTTTCTGTTCAAGCGCCATCTAC | 0.883 RPM ratio (pull-down/input)
GATGATTGTTCTCCCAGCTGATGAATTTCGCCCATCGAGTAAACAAATTTTCCTAATCTTTCTGTTCAAGCGCCATCTAC | 0.827 RPM ratio (pull-down/input)
GATGATTGTTCTCCCAGCTGATGAATTATATTACTCGAGTAAACAAATTTTCCTAATCTTTCTGTTCAAGCGCCATCTAC | 1.08 RPM ratio (pull-down/input)
GATGATTGTTCTCCCAGCTGATGAATTCTCATATTCGAGTAAACAAATTTTCCTAATCTTTCTGTTCAAGCGCCATCTAC | 0.94 RPM ratio (pull-down/input)
GATGATTGTTCTCCCAGCTGATGAATTGTGTACGTCGAGTAAACAAATTTTCCTAATCTTTCTGTTCAAGCGCCATCTAC | 1.71 RPM ratio (pull-down/input)
GATGATTGTTCTCCCAGCTGATGAATTTTCGCTATCGAGTAAACAAATTTTCCTAATCTTTCTGTTCAAGCGCCATCTAC | 1.06 RPM ratio (pull-down/input)

Sequence | binding signal
GATGATTGTTCTCCCAGCTGATGAATTTATATTATCGAGTAAACAAATTTTCCTAATCTTTCTGTTCAAGCGCCATCTAC | 2.04 RPM ratio (pull-down/input)
GATGATTGTTCTCCCAGCTGATGAATTGGTGAGATCGAGTAAACAAATTTTCCTAATCTTTCTGTTCAAGCGCCATCTAC | 0.906 RPM ratio (pull-down/input)
GATGATTGTTCTCCCAGCTGATGAATTATTGAGATCGAGTAAACAAATTTTCCTAATCTTTCTGTTCAAGCGCCATCTAC | 1.11 RPM ratio (pull-down/input)
GATGATTGTTCTCCCAGCTGATGAATTTATTGCGTCGAGTAAACAAATTTTCCTAATCTTTCTGTTCAAGCGCCATCTAC | 1.31 RPM ratio (pull-down/input)
GATGATTGTTCTCCCAGCTGATGAATTAGTTTAATCGAGTAAACAAATTTTCCTAATCTTTCTGTTCAAGCGCCATCTAC | 1.02 RPM ratio (pull-down/input)
GATGATTGTTCTCCCAGCTGATGAATTGAACTTTTCGAGTAAACAAATTTTCCTAATCTTTCTGTTCAAGCGCCATCTAC | 0.887 RPM ratio (pull-down/input)
GATGATTGTTCTCCCAGCTGATGAATTTGGCAGGTCGAGTAAACAAATTTTCCTAATCTTTCTGTTCAAGCGCCATCTAC | 0.753 RPM ratio (pull-down/input)
GATGATTGTTCTCCCAGCTGATGAATTCCAACACTCGAGTAAACAAATTTTCCTAATCTTTCTGTTCAAGCGCCATCTAC | 0.916 RPM ratio (pull-down/input)
GATGATTGTTCTCCCAGCTGATGAATTGGGATTATCGAGTAAACAAATTTTCCTAATCTTTCTGTTCAAGCGCCATCTAC | 0.952 RPM ratio (pull-down/input)
GATGATTGTTCTCCCAGCTGATGAATTTGGAGACTCGAGTAAACAAATTTTCCTAATCTTTCTGTTCAAGCGCCATCTAC | 0.799 RPM ratio (pull-down/input)
GATGATTGTTCTCCCAGCTGATGAATTTGAATCCTCGAGTAAACAAATTTTCCTAATCTTTCTGTTCAAGCGCCATCTAC | 0.822 RPM ratio (pull-down/input)
GATGATTGTTCTCCCAGCTGATGAATTGATGCTATCGAGTAAACAAATTTTCCTAATCTTTCTGTTCAAGCGCCATCTAC | 1.5 RPM ratio (pull-down/input)
GATGATTGTTCTCCCAGCTGATGAATTGAGGAGCTCGAGTAAACAAATTTTCCTAATCTTTCTGTTCAAGCGCCATCTAC | 0.714 RPM ratio (pull-down/input)
GATGATTGTTCTCCCAGCTGATGAATTGTAGCGCTCGAGTAAACAAATTTTCCTAATCTTTCTGTTCAAGCGCCATCTAC | 0.917 RPM ratio (pull-down/input)
GATGATTGTTCTCCCAGCTGATGAATTGTAGCTGTCGAGTAAACAAATTTTCCTAATCTTTCTGTTCAAGCGCCATCTAC | 0.906 RPM ratio (pull-down/input)
GATGATTGTTCTCCCAGCTGATGAATTAGCGCCCTCGAGTAAACAAATTTTCCTAATCTTTCTGTTCAAGCGCCATCTAC | 0.851 RPM ratio (pull-down/input)
GATGATTGTTCTCCCAGCTGATGAATTTTGTGCCTCGAGTAAACAAATTTTCCTAATCTTTCTGTTCAAGCGCCATCTAC | 1.06 RPM ratio (pull-down/input)
GATGATTGTTCTCCCAGCTGATGAATTTAGCTGATCGAGTAAACAAATTTTCCTAATCTTTCTGTTCAAGCGCCATCTAC | 0.957 RPM ratio (pull-down/input)
GATGATTGTTCTCCCAGCTGATGAATTAGGCTGGTCGAGTAAACAAATTTTCCTAATCTTTCTGTTCAAGCGCCATCTAC | 0.867 RPM ratio (pull-down/input)
GATGATTGTTCTCCCAGCTGATGAATTAAAAATGTCGAGTAAACAAATTTTCCTAATCTTTCTGTTCAAGCGCCATCTAC | 0.979 RPM ratio (pull-down/input)
GATGATTGTTCTCCCAGCTGATGAATTGCTGCTCTCGAGTAAACAAATTTTCCTAATCTTTCTGTTCAAGCGCCATCTAC | 0.964 RPM ratio (pull-down/input)
